#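 Compound exposure: 48 hours, 5 concentrations, 96-well plates. GI50 is the concentration that inhibits growth by half. Definition used: TGI = concentration required for complete inhibition of growth.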
# Tested on: NCI-H322M lung
# Test: NCI tumour cell line growth inhibition, 48 h
SMILES,GI50,TGI
Oc1ccc(Cl)c(Nc2nc(SCCN3CCOCC3)nc3c2cnn3CC(Cl)c2ccc(Br)cc2)c1 (stereo not drawn),35.1 µM,> 100 µM
COc1ccc(C(=O)/C=C/c2ccc3ccccc3c2)cc1S(N)(=O)=O,2.3 µM,8.36 µM
Cn1cc(-c2cc(N)n3nc(-c4c[nH]c5ccccc45)cc3n2)c2cc(Br)ccc21,2.13 µM,5.82 µM
Cn1cc(-c2nc(N)nnc2-c2c[nH]c3ccc(Br)cc23)c2cc(Br)cnc21,0.62 µM,19.5 µM

# — PubChem BioAssay (NCI)
